# About 430 (39%) of roughly 1,100 compounds were called active. The set was probably picked from earlier hits. The inconclusive results got no clear call from the source; some entries with a clear call stand among them for comparison. Calls come from the whole dose curve; as a rule, active = well fitted inhibition curve with a large enough effect; inconclusive = small, poorly fitted or top-dose-only effect, or effect the other way; inactive = flat fitted curve, though single readings scatter. Where the call is inconclusive, the potency comes from a doubtful curve fit.
# Target: ATP-dependent 6-phosphofructokinase (Trypanosoma brucei brucei) (UniProt O15648)
# Sequence of UniProt O15648 (O15648 whole entry, looked up): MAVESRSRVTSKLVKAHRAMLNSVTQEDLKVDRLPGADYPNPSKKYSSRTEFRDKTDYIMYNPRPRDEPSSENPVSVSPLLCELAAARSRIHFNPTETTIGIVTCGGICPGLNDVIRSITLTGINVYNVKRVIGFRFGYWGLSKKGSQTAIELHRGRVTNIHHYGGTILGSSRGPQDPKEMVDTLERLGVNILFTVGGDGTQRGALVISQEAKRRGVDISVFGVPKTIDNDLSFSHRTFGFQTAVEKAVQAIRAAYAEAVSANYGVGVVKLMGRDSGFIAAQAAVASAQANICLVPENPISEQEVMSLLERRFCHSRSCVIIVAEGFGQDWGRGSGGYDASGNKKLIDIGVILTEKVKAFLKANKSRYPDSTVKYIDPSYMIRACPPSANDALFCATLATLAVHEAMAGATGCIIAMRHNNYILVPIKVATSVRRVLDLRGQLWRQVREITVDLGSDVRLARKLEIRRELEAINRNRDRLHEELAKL
# Experiment: Inhibitors of T. brucei phosphofructokinase: Hit Validation; note: nearly all actives have a fitted effect of over 60% in size;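 for activity change, negative = inhibition: plate controls were full PFK enzyme control for no effect and no enzyme control for full effect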
# Conditions: purified T. brucei PFK, ADP-Glo luminescence, 45 min; series mostly up to 57.5 µM; activity change, negative = inhibition: at the top concentration
# Potency is the fitted concentration of half-maximal effect; tags give direction and shape of the fitted curve.
Compound,"activity change, negative = inhibition",Potency
Fc1ccc(NC(=S)Nc2ccccc2N2CCOCC2)cc1Cl,inactive: 3.55%,–
CN1CCc2nc3sc(C(=O)C45CC6CC(CC(C6)C4)C5)c(N)c3cc2C1,–,"inconclusive: 23.9 µM [activator, single point]"
NC(N)=NS(=O)(=O)c1ccc(NC(=S)NC(=O)Cc2ccc(Cl)cc2)cc1,–,active: 30.1 µM
CCCN1C(=O)S/C(=C/c2ccc(N3CCOCC3)o2)C1=O,inactive: -4.48%,–
COC(=O)c1cccc(NC(=S)Nc2ccc(Cl)c(Cl)c2)c1,–,"inconclusive: 30.1 µM [inhibitor, single point]"
O=C(O)CCN1C(=O)c2ccc(NC(=O)CSc3ccc(Cl)cc3)cc2C1=O,–,"inconclusive: 33.8 µM [inhibitor, single point]"
O=C(CSc1ccccc1)Nc1ccc(S(=O)(=O)Nc2ncccn2)cc1,inactive: -12.7%,–
Cc1c(Br)c([N+](=O)[O-])nn1CC(=O)Nc1ccccn1,–,"inconclusive: 26.9 µM [inhibitor, partial curve]"
O=C(C(=O)N1CCOCC1)c1cn(CC(=O)N2CCc3ccccc3C2)c2ccccc12,–,"inconclusive: 33.8 µM [inhibitor, single point]"
CCN(CC)c1ccc(NC(=O)CSc2ccsc2[N+](=O)[O-])c(C)c1,inactive: -26.8%,–
Cc1c(N2C(=O)/C(=C\c3ccccc3O)SC2=S)c(=O)n(-c2ccccc2)n1C,inactive: -29.8%,–
O=S(=O)(c1ccc2nc(COc3ccc(Cl)cc3Cl)[nH]c2c1)N1CCOCC1,–,"inconclusive: 30.1 µM [inhibitor, partial curve]"
CC(CNc1ccccc1O)C(=O)O (configuration not stated),–,"inconclusive: 26.9 µM [inhibitor, partial curve]"
CCNC(=O)C1CCCc2c1[nH]c1ccc(Cl)cc21 (configuration not stated),–,active: 21.3 µM
CN(C)CCn1nnnc1SCC1=C(C(=O)O)N2C(=O)[C@@H](NC(=O)Cc3csc(N)n3)[C@H]2SC1,inactive: -6.98%,–
O=c1cc(-c2ccccc2)oc2cc(O)c(O)c(O)c12,–,active: 5.36 µM
O=C1C2C3C=CC(CO)(O3)C2C(=O)N1c1ccccc1-c1ccccc1 (configuration not stated),–,"inconclusive: 30.1 µM [inhibitor, single point]"
Cc1noc(C)c1COc1ccc(C(=O)NNC(=O)c2ccccc2O)cc1,inactive: 5.69%,–
Oc1ccc(C2=Nn3c(nnc3-c3ccco3)SC2)cc1O,–,"inconclusive: 37.9 µM [inhibitor, single point]"
O=C(O)c1ccc(Cl)c(S(=O)(=O)Nc2ccc3cn[nH]c3c2)c1,inactive: 0.927%,–
Cc1c(Cl)cccc1NC(=O)C(=O)NNC(=O)c1ccccc1F,–,"inconclusive: 10.7 µM [activator, partial curve]"
CC(=C\C(=O)O)/C(=C\c1cccc2ccccc12)C(=O)O,inactive: -1.08%,–
Cc1occc(=O)c1OC(=O)Nc1ccc(Cl)c(Cl)c1,–,"inconclusive: 37.9 µM [inhibitor, single point]"
Cc1ccn(-c2cc(O)c(-n3ccc(C)n3)cc2O)n1,–,"inconclusive: 1.2 µM [activator, partial curve, poor fit]"
COc1ccc(N/C=C(\C2OC(=O)c3ccccc32)[N+](=O)[O-])cc1 (configuration not stated),inactive: -3.4%,–
Cc1nn(CC(=O)N2CCN(c3cccc(C(F)(F)F)c3)CC2)c(=O)c2cccn12,inactive: -22.5%,–

Compound,"activity change, negative = inhibition",Potency
Oc1ccc(C2C[C@H]3CC[C@@H]2C3)cc1O (some centres not stated),–,active: 13.5 µM
Cc1ccc(/C=C2/NC(=O)N(c3ccccc3)C2=O)o1,–,"inconclusive: 15.1 µM [inhibitor, partial curve, poor fit]"
Cc1oc(=O)c(NC(=O)c2ccc(Cl)cc2)cc1C(=O)c1ccccc1,inactive: -7.54%,–
Cc1ccc(O)c(NC2=C(Cl)C(=O)N(Cc3ccccc3)C2=O)c1,–,active: 19 µM
Cc1ccc(C)c(OCCCC(=O)Nc2ccc(N3CCOCC3)cc2)c1,inactive: -5.39%,–
CCOC(=O)C/C(C)=N/NC(=O)CNc1cccc(Cl)c1C,inactive: -4.4%,–
O=C(O)[C@@H](c1ccccc1)N1Cc2ccccc2C1=O,–,"inconclusive: 30.1 µM [inhibitor, single point]"
O=C1CSC(=S)N1/N=C/c1ccc(O)c([N+](=O)[O-])c1,inactive: -1.08%,–
NS(=O)(=O)c1ccc(NC(=S)Nc2cc(Cl)c(Cl)cc2Cl)cc1,–,"inconclusive: 30.1 µM [inhibitor, single point]"
CCCCC(=O)Nc1ccc(F)c(Cl)c1,inactive: -12.5%,–
CC(C)(C)C(=O)[C@@H]1[C@@H]2C(=O)N(c3ccc4c(c3)OCCO4)C(=O)[C@@H]2C2c3ccccc3C=CN21 (some centres not stated),inactive: -0.528%,–
COc1cc(/C=C/c2ccc3cccc([N+](=O)[O-])c3n2)ccc1OCC(=O)O,inactive: 25.6%,–
COc1ccc(C(=O)COC(=O)c2ccccc2O)c(OC)c1,inactive: -14.5%,–
Oc1cc(-n2cccn2)c(O)cc1-n1cccn1,–,"inconclusive: 37.9 µM [inhibitor, single point]"
O=C(c1ccc(NC(=S)Nc2ccc(Cl)c(Cl)c2)cc1)N1CCCC1,–,"inconclusive: 30.1 µM [inhibitor, partial curve]"
O=C(O)c1ccc2c(c1)C(=O)/C(=C/c1ccccc1)C2=O,–,"inconclusive: 3.01 µM [activator, partial curve]"
CCOC(=O)c1c(NC(=O)COC(=O)c2ccc(NC(=O)CC#N)cc2)sc(C(=O)NC)c1C,–,active: 6.75 µM
CCOc1ccc(C(=O)OCC(=O)NCc2ccco2)cc1OCC,inactive: -15.1%,–
O=c1cc2c(=O)oc3cc(O)c(O)oc3c2c(O)c1O,–,active: 1.35 µM
O=C(O)Cc1sc(-c2ccccc2Cl)nc1-c1ccccc1,inactive: 12.4%,–
Clc1ccc(Cn2ncc3c(N4CCCC4)ncnc32)cc1,–,"inconclusive: 37.9 µM [inhibitor, single point]"
O=C(COC(=O)CCC(=O)c1cccs1)NCc1ccco1,inactive: -18.7%,–
O=C(CSc1nc2ccccc2s1)Nc1ccc(Cl)c(C(=O)O)c1,inactive: 19.1%,–
COCCn1c(C)cc(C(=O)COC(=O)c2cc3c(s2)CCC3)c1C,inactive: -25.3%,–
O=C(Nc1ccc2c(c1)OCCO2)c1ccc(Cl)c([N+](=O)[O-])c1,–,active: 26.9 µM
O=C(O)c1ccc(N=Nc2c(O)[nH]c3cc(Cl)ccc23)cc1,–,"inconclusive: 6.01 µM [activator, partial curve]"

# Reference: PubChem BioAssay AID504637 (National Center for Advancing Translational Sciences (NCATS), 2011)
